Changes are numbered by the printed parent chain.

What all share (type): cell-based
For one test, the system named is liver cancer cells. In words: Neutralizing activity with liver cancer cells. The conditions noted are these: tests with liver cancer cells. How it is done: A specific test for assessing whether a particular anti-hPG antibody is neutralizing can be performed as follows. Huh7 hepatocellular carcinoma cells are seeded in ultra low-adherence 24-well plates (500 cells/well) in serum-free M11 medium. Cells are grown at 37° C. and treated twice daily for 7 days with the test anti-hPG antibody or a control, non-specific monoclonal antibody, at antibody concentrations of about 5 μg/mL. At the end of the experiment, photomicrographs are taken, and the number of spheres per well is counted and the median and percentile distribution calculated.

Test [1] concerns PLC/PRL/5 hepatocellular carcinoma cells. Briefly: Spheroid formation of PLC/PRL/5 cells under low adherence culture conditions. Conditions: 6 μg/ml twice daily, 7 days, vs control MAb. The protocol: PLC/PRL/5 hepatocellular carcinoma cells were seeded in ultra low-adherence 24-well plates (220 cells/well) in serum-free M11 medium (DMEM/F12 with 20 ng/ml EGF, 10 ng/ml FGF, 20 μg/ml insulin, N2 supplement, 2 μg/ml ciprofloxacin, 5 μg/ml gentamycin and 3 μg/ml glucose). Cells were grown for 10 days at 37° C., with the daily addition of control or anti-hPG MAb3 monoclonal antibodies (1 μg/ml). At the end of the experiment, photomicrographs were taken, and the number of spheres per well counted and the mean and standard deviation calculated. In one experiment, PLC/PRL/5 hepatocellular carcinoma cells were seeded in ultra low-adherence 96-well plates (35 cells/well) in serum-free M11 medium (DMEM/F12 with 20 ng/ml EGF, 10 ng/ml FGF, 20 μg/ml insulin, N2 supplement, 2 μg/ml ciprofloxacin, 5 μg/ml gentamycin, and 3 μg/ml glucose). […] At the end of the experiment, photomicrographs were taken, and the number of spheres per well counted and the median and percentile distribution calculated. […] At the end of the experiment, photomicrographs were taken, and the number of spheres per well counted and the median and percentile distribution calculated. […] At the end of the experiment, photomicrographs were taken, and the number of spheres per well counted and the median and percentile distribution calculated.

In test [2] the test system is Huh7 hepatocellular carcinoma cells. In words: Spheroid formation of Huh7 cells under low adherence culture conditions. Conditions: 7 days. The protocol:
(§1) In a first experiment, Huh7 hepatocellular carcinoma cells were seeded in ultra low-adherence 24-well plates (500 cells/well) in serum-free M11 medium (DMEM/F12 with 20 ng/ml EGF, 10 ng/ml FGF, 20 μg/ml insulin, N2 supplement, 2 μg/ml ciprofloxacin, 5 μg/ml gentamycin and 3 μg/ml glucose). Cells were treated twice daily for 7 days at 37° C. with vehicle (PBS, Control) or with 3 μg/ml anti-hPG MAb13 monoclonal antibody (anti-hPG MAb 13). At the end of the experiment, photomicrographs were taken, and the number of spheres per well counted and the median and percentile distribution calculated.
as §1, with “second” for “first”, “6” for “vehicle (PBS, Control) or with 3”, “of one of: a control” for “anti-hPG MAb13”, “(Control MAb, (P3X63Ag8, ATCC, Ref TIB-9), anti-hPG MAb13, or anti-hPG MAb16 monoclonal antibodies.” for “(anti-hPG MAb 13).”

The test system is the same in test [3]. In words: Spheroid formation of Huh7 cells after antibody pre-treatment under regular adherence. The conditions noted are these: pre-treatment with 10 μg/mL, then 5 days without treatment, vs control MAb; FIG. 13A-B. The protocol:
In one experiment, 75,000 Huh7 hepatocellular carcinoma cells/well were first seeded into 6-well plates in MEMα with 10% FCS, serum starved overnight and grown for 60 hours in MEMα+0.5% Pannexin H in the presence of 10 μg/mL anti-progastrin monoclonal antibody MAb8 or control monoclonal antibody (P3X63Ag8, ATCC, Ref TIB-9). At the end of treatment, for each treatment group, 500 cells/well were plated into eight wells of ultra low-adherence 24-well plates in 500 μl of serum-free M11 medium containing bFGF and EGF, and grown for a further 5 days without treatment. At the end of this period, photographs were taken, the number of spheres per well was counted, and sphere surface was measured. […] Thereafter, an operator who was blinded to the identity of all wells counted the spheroids.
In a second experiment, 75,000 Huh7 hepatocellular carcinoma cells/well were first seeded into 6-well plates in MEMα with 10% FCS, serum starved overnight and grown for 60 hours in MEMα+0.5% Pannexin H in the presence of 10 μg/mL anti-progastrin monoclonal antibody MAb16 or a control monoclonal antibody (P3X63Ag8, ATCC, Ref TIB-9). […] At the end of this period, photographs were taken, the number of spheres per well was counted, and sphere surface was measured. […] Thereafter, an operator who was blinded to the identity of all wells counted the spheroids.

Where [4] appears, read: 6 μg/ml twice daily, vs control monoclonal antibody, FIG. 12B.

B1: MAb13: murine C-terminal anti-hPG monoclonal antibody, hybridoma 2C6C3C7, VH SEQ ID NO:60, VL SEQ ID NO:64 (antibody, V domains shown)
VH: EVQLVESGGGLVQPGGSLKLSCAASGFIFSSYGMSWVRQSPDRRLELVASINTFGDRTYYPDSVKGRFTISRDNAKNTLYLQMTSLKSEDTAIYYCARGTGTYWGQGTTLTVSS
VL: DVVLTQTPLTLSVTIGQPASISCKSSQSLLDSDGKTYLNWLLQRPGQSPKRLIYLVSKLDSGVPDRFTGSGSGTDFTLKISRVEAEDLGVYYCWQGTHFPQTFGGGTKLEIK
As to B1, the Neutralizing activity result in the test with liver cancer cells was “exhibited neutralizing activity”. The “Number of spheroids formed” value in test [1] (FIG. 15B) is “significantly reduced”; in test [1] (FIG. 15C), “significantly reduced”; in test [2] (3 μg/ml twice daily, vs untreated (PBS) control, FIG. 12A), “substantially reduced”; in test [2] (setting [4]) it was “substantially reduced”.

B2: MAb16: murine N-terminal anti-hPG monoclonal antibody, hybridoma 1E9D9B6, VH SEQ ID NO:61, VL SEQ ID NO:65 (antibody, V domains shown)
VH: QVQLQQSGAELVKPGASVKLSCKASGYTFTSYYMYWVKQRPGQGLEWIGEINPSNGGTNFNEKFKSKATLTVDKSSSTAYMQLSSLTSEDSAVYYCTRGGYYPFDYWGQGTTLTVSS
VL: B1 VL with L4M, Q17R, N39Y, K58E, F67I, F99S, Q101Y
On to B2, for which the Neutralizing activity result with liver cancer cells is “exhibited neutralizing activity”. The “Number of spheroids formed” value in test [2] (setting [4]) was “substantially reduced”. In addition, the “Ability to grow as spheroids” value in test [3] was “significantly reduced”.

The values above are taken from US10533050B2, “Methods and compositions for liver cancer therapy” (Institut National de la Sante et de la Recherche Medicale …, priority 2010, dated 2020).
